Test results reported in publication PMC12728655, “Engineering an Artificial Myxopyronin Derivative with Enhanced Metabolic Stability via Mutasynthesis” (JACS Au, 2025).
Values after ≈ are worked out from the molar mass of the structure shown.

How the values were obtained:
Experiment in all cases: microbe, parasite or virus in culture
[1] = tested on: wt-E. coli BW25113; details: Escherichia coli
[2] = tested on: E. faecium DSM-20477; details: Enterococcus faecium, DSM20477
[3] = tested on: V^R-E. faecium DSM-17050; details: Enterococcus faecium, DSM17050

COC(=O)N/C=C/CC[C@@H](C)c1cc(O)c(C(=O)/C(C)=C/C=C(\C)CCC(F)(F)F)c(=O)o1 [MYX (8)]
MIC [1]: > 64 µg/mL | MIC [2]: > 64 µg/mL | MIC [3]: > 64 µg/mL

CCC/C(C)=C/C=C(\C)C(=O)c1c(O)cc([C@H](C)CC/C=C/NC(=O)OC)oc1=O [MYX A (1), myxopyronins A]
MIC [1]: > 64 µg/mL | MIC [2]: > 64 µg/mL | MIC [3]: > 64 µg/mL

CO[C@H]1/C=C/O[C@@]2(C)Oc3c(C)c(O)c4c(O)c(c(/C=N/N5CCN(C)CC5)c(O)c4c3C2=O)NC(=O)/C(C)=C\C=C\[C@H](C)[C@H](O)[C@@H](C)[C@@H](O)[C@@H](C)[C@H](OC(C)=O)[C@@H]1C [rifampin]
MIC [1]: 16 µg/mL (≈ 19.4 µM) | MIC [2]: 8 to 16 µg/mL (≈ 9.72 to 19.4 µM) | MIC [3]: 0.03 µg/mL (≈ 0.0365 µM)
